{"source": "PubChem BioAssay AID463173", "about": "(ICCB-Longwood Screening Facility, Harvard Medical School, 2010)", "note": "The whole screen tested about 52,000 compounds, of which about 1,700 (3.3%) were called active. No stated cut-off is given here; in the data, active means survival mostly below about 52% (no sharp cut-off); inactive means mostly above about 56%. The list shows a part of the results.", "data": [{"test_system": "Wild type", "experiment": "growth inhibition of S. aureus wild type versus tarO mutant, primary screen, teichoic acid synthesis inhibitors, RN4220, OD600 (AID 463173)", "details": "S. aureus RN4220 wild type/DeltatarO growth, OD600, 18 h, active compounds read low, screened at 18.75 µg/mL (by protocol)", "values": [{"smiles": "COc1cccc(Cn2c(C)c(CNCc3cccc(C)c3)c(C(=O)O)c2C)c1", "survival": "inactive: 122%"}, {"smiles": "COc1cc2c(cc1OC)C(CC(=O)Nc1ccccc1)C(=O)NN=C2C", "note": "(stereo unspecified)", "survival": "inactive: 105%"}, {"smiles": "CCN(C(=O)c1ccco1)c1nc(CC(=O)Nc2ccc(Cl)cc2)cs1", "survival": "inactive: 117%"}, {"smiles": "Cc1cccc(-c2nc3c4ccccc4nc(N4CCN(c5cccc(Cl)c5)CC4)n3n2)c1", "survival": "inactive: 67%"}, {"smiles": "O=C(CSc1nc2ccccc2nc1Cc1ccccc1)N1CCc2ccccc21", "survival": "inactive: 81%"}, {"smiles": "Cc1cccc(NC(=O)CSc2nc(-c3cccs3)nc3cc(=O)[nH]n23)c1", "survival": "inactive: 68%"}, {"smiles": "COc1ccc(-c2c3c(nc4sc(C(=O)Nc5cccc(OC)c5)c(N)c24)CC(C)(C)CC3=O)cc1", "survival": "inactive: 77%"}, {"smiles": "CCc1ccccc1NC(=O)Cn1c(=O)n(CCc2ccccc2)c(=O)c2sc3ccccc3c21", "survival": "inactive: 94%"}, {"smiles": "N#C/C(=C\\c1ccc(N2CCOCC2)o1)C(=O)NCC1CCCO1", "note": "(stereo unspecified)", "survival": "inactive: 108%"}, {"smiles": "Cc1cc(C(=O)N2CCN(c3ccccc3F)CC2)c2c(C)nn(-c3ccccc3)c2n1", "survival": "inactive: 134%"}, {"smiles": "COc1ccc(NC(=O)N(CCN(C)C)Cc2cc3cc(OC)ccc3[nH]c2=O)cc1", "survival": "inactive: 107%"}, {"smiles": "Cc1cc(C)n2nc(CNS(=O)(=O)c3cccc(Cl)c3)nc2n1", "survival": "inactive: 120%"}, {"smiles": "Cc1[nH]c(=O)[nH]c(=O)c1Cc1cccc2ccccc12", "survival": "inactive: 103%"}, {"smiles": "COc1ccc(CCNC(=O)c2ccc(Cn3c(=O)c4cccn4c4cccnc43)cc2)cc1OC", "survival": "inactive: 96%"}, {"smiles": "CCCCN(C)C(=O)CSc1c2c(nc3ccc(Cl)cc13)CCCC2", "survival": "active: -2%"}, {"smiles": "CCC(C)NC(=O)c1ccc(CNS(=O)(=O)c2ccc3c(c2)C(C)(C)C(=O)N3C)cc1", "note": "(stereo unspecified)", "survival": "inactive: 97%"}, {"smiles": "Cc1cc(C)c2oc(-c3cccc(NC(=O)c4cccc(F)c4)c3C)nc2c1", "survival": "inactive: 70%"}, {"smiles": "Cc1cccc(Cn2c(=O)n(-c3cc(C)cc(C)c3)c(=O)c3oc4ccccc4c32)c1", "survival": "inactive: 78%"}, {"smiles": "CCc1nn(CCCC(=O)NCc2ccccc2OC)c(=O)c2cc3occc3n12", "survival": "inactive: 83%"}, {"smiles": "CCc1ccc(S(=O)(=O)Nc2ccc3c(c2)sc(=O)n3C)cc1", "survival": "inactive: 90%"}, {"smiles": "Cc1ccc(Cl)cc1NC(=O)CN1C=NS(=O)(=O)c2ccccc21", "survival": "inactive: 73%"}, {"smiles": "O=c1c2ccccc2nc(SCc2ccccc2)n1Cc1ccco1", "survival": "inactive: 111%"}, {"smiles": "Cc1ccc(Cl)cc1N1CCN(C(=O)C2CCN(S(=O)(=O)c3cn(C)cn3)CC2)CC1", "survival": "inactive: 88%"}, {"smiles": "Cc1cccc(N2CCN(CCCNC(=O)Cn3ncc4c([nH]c5ccccc54)c3=O)CC2C)c1", "note": "(stereo unspecified)", "survival": "inactive: 101%"}, {"smiles": "Cc1cc(C)c2c(n1)nn1c(C)c(CCC(=O)Nc3cccc(C)c3C)c(C)nc21", "survival": "inactive: 86%"}, {"smiles": "Cc1ccc(-c2nc3cccc(C)n3c2Nc2ccc3c(c2)OCCO3)cc1", "survival": "inactive: 75%"}, {"smiles": "COc1ccc(N(C)C(=O)Cn2cnc3sc(C)c(S(=O)(=O)N4CCN(c5ncccn5)CC4)c3c2=O)cc1", "survival": "inactive: 74%"}, {"smiles": "O=C(NCCS(=O)(=O)N1CCN(c2cccc(Cl)c2)CC1)C(c1ccccc1)c1ccccc1", "survival": "inactive: 71%"}, {"smiles": "CCOCCCn1c(=N)c(C(=O)NC2CCCCC2)cc2c(=O)n3ccccc3nc21", "survival": "inactive: 74%"}, {"smiles": "CCc1nn(CC(=O)NCc2ccccc2)c(=O)c2cccn12", "survival": "inactive: 89%"}, {"smiles": "COC(=O)c1c(NC(=O)c2cc(=O)c3c(C)cc(C)cc3o2)sc2c1CCCC2", "survival": "inactive: 86%"}, {"smiles": "Cc1cccc(NC(=O)CN(c2ccc(C(C)C)cc2)S(=O)(=O)c2c(C)nn(C)c2C)c1C", "survival": "inactive: 75%"}, {"smiles": "CCOC(=O)C1CCN(S(=O)(=O)c2cc(-c3onc(C)c3C)ccc2C)CC1", "survival": "inactive: 81%"}, {"smiles": "Cc1ccc(-n2ncc3c(N4CCN(c5ccccc5)CC4)ncnc32)cc1C", "survival": "inactive: 69%"}, {"smiles": "COCCn1c(C)cc(O)c(C(c2ccccc2)N2CCC(C)CC2)c1=O", "note": "(stereo unspecified)", "survival": "inactive: 73%"}, {"smiles": "CC(=O)N1CCCc2cc(S(=O)(=O)N3CCC(C(=O)N(Cc4ccccc4)C(C)C)CC3)ccc21", "survival": "inactive: 81%"}, {"smiles": "CCOC(=O)N1CCN(C(=O)c2ccc3c(c2)N(Cc2ccccc2F)C(=O)c2ccccc2S3=O)CC1", "note": "(stereo unspecified)", "survival": "inactive: 85%"}, {"smiles": "O=C(c1c2c(nc3ccccc13)C(=O)N(C1CCCCC1)C2)N1CCN(c2ccc(F)cc2)CC1", "survival": "inactive: 81%"}, {"smiles": "CCc1ccccc1Nc1cc(C(=O)NCc2ccc(C)cc2)c2ccccc2n1", "survival": "inactive: 89%"}, {"smiles": "COc1ccc(N2C(=O)CSC23C(=O)N(C)c2ccccc23)cc1Cl", "note": "(stereo unspecified)", "survival": "inactive: 85%"}, {"smiles": "Cc1ccc(S(=O)(=O)c2cn(Cc3cccc(F)c3)c3cc(N4CCCC4)c(F)cc3c2=O)cc1", "survival": "inactive: 84%"}, {"smiles": "CCOc1ccc(NC(=O)c2cc3sc(Cl)cc3n2CC)cc1", "survival": "inactive: 92%"}, {"smiles": "COc1ccc(C)cc1Nc1nc2c(S(=O)(=O)c3cccc(Cl)c3)nnn2c2ccsc12", "survival": "inactive: 88%"}, {"smiles": "CCOC(=O)c1c(S(=O)(=O)N2CCCC(C(=O)Nc3ccc(OCC)cc3)C2)c(C)n(C)c1C", "note": "(stereo unspecified)", "survival": "inactive: 71%"}, {"smiles": "Cc1ccc(-c2cc(NC(=O)c3ccccc3Cl)on2)cc1", "survival": "inactive: 67%"}, {"smiles": "CCCOc1ccccc1-c1nc(SCC(=O)c2ccccc2)n[nH]1", "survival": "inactive: 85%"}, {"smiles": "CCN1CCN(CCCNC(=O)c2ccc3nc(Cc4ccc(OC)cc4)oc3c2)CC1", "survival": "inactive: 95%"}, {"smiles": "CC(C)C(=O)Nc1ccc(Br)cc1", "survival": "inactive: 104%"}, {"smiles": "CCOc1cc(CNS(=O)(=O)c2ccc3c(c2)CC(=O)N3C)cc(OCC)c1OCC", "survival": "inactive: 120%"}, {"smiles": "O=C(Nc1ccc(C(=O)N2CCN(c3ccc(F)cc3)CC2)cc1)c1nsc2ccccc12", "survival": "inactive: 55%"}, {"smiles": "COc1ccc(Br)cc1C(=O)Nc1ccc2oc(-c3cccnc3)nc2c1", "survival": "inactive: 130%"}, {"smiles": "CC(=O)Nc1ccc(S(=O)(=O)N2CCC(c3ccncc3)CC2)cc1", "survival": "active: -6%"}, {"smiles": "CCCCN(CCCC)c1ncnc2c1cnn2-c1cccc(C)c1", "survival": "inactive: 91%"}, {"smiles": "Cc1cc(C)n(C(C)CC(=O)NCc2ccccc2C)n1", "note": "(stereo unspecified)", "survival": "inactive: 127%"}, {"smiles": "Cc1ccc2c(CN3CCN(Cc4ccccc4Cl)CC3)cc(=O)oc2c1", "survival": "inactive: 79%"}, {"smiles": "COc1ccc(CCNC(=O)CCCn2c(=O)c3cccn3c3cccnc32)cc1OC", "survival": "inactive: 91%"}]}]}
